# PubChem BioAssay AID1240 (Sanford-Burnham Center for Chemical Genomics, 2008)
# Out of some 50,000 compounds screened, about 800 (1.6%) showed an effect of 50% or more. This is one part of the list.
# Target: Bcl-2-like protein 10 (Homo sapiens) (UniProt Q9HD36)
# Assay: TR3 peptide-Bcl-B binding displacers, biochemical primary FP assay, phenotype converters (AID 1240);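 further: 0% = Bcl-B with tracer peptide and DMSO and 100% = tracer peptide lacking Bcl-B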
# Conditions: GST-Bcl-B / FITC-TR3 peptide fluorescence polarization; stronger effect = higher value; compound at 3.75 mg/L
# UniProt Q9HD36, sequence (Q9HD36 whole entry, looked up): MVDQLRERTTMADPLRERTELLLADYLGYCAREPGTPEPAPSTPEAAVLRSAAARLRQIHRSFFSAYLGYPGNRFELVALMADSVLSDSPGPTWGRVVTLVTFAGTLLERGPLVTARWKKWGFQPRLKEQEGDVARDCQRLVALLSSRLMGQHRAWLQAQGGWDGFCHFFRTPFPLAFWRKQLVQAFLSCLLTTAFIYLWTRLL
row,SMILES,displacement [%]
1,O=C1CC(N2CCN(c3ccc(Cl)cc3)CC2)C(=O)N1c1cccc(Cl)c1 (centres undefined),-4.6
2,O=C(/C=C/c1ccc(F)cc1)Nc1nc(-c2ccccc2)cs1,-2
3,COC(=O)CN(c1cc(OC)ccc1OC)S(=O)(=O)c1ccccc1,-0.9
4,COc1ccc(CCNC(=O)/C=C/c2ccc3c(c2)OCO3)cc1OC,-3.5
5,COc1ccc(Cl)cc1NC(=O)C1=C(C)NC(=O)NC1c1ccc([N+](=O)[O-])cc1 (centres undefined),13.6
6,C(=Nc1ccc2ccccc2c1)c1cccnc1,-4.4
7,COCCCNS(=O)(=O)c1ccc([N+](=O)[O-])cc1,-4.5
8,COc1ccc(S(=O)(=O)NC2CCS(=O)(=O)C2)cc1 (centres undefined),-2.2
9,CCOc1ccc(N2C(=O)NC(=O)/C(=C/c3ccc(-c4ccc(C(=O)O)c(Cl)c4)o3)C2=O)cc1,-25.8
10,COc1cc(OC)c(OC)cc1CN1CCN(Cc2ccc(C)cc2C)CC1,-4
11,Cc1ccc(S(=O)(=O)NC(=O)Oc2ccc3oc(=O)sc3c2)cc1,22.7
12,Cc1ccc(NC(=O)C2CC2(c2ccccc2)c2ccccc2)cc1C (centres undefined),-4
13,CCn1c(O)c(/C=N/N=C/c2ccccc2)c2ccc(C3=NNC(=O)CC3)cc21,119
14,O=S(=O)(NCc1ccc2c(c1)OCO2)c1ccc(Cl)cc1,-2.8
15,C=CCOc1cccc(/C=N/NC(=O)C(=O)NCc2ccccn2)c1,-1.4
16,Cc1ccc2nc(NC(=O)c3ccc4c(c3)OCO4)sc2c1,0.7
17,CN(Cc1ccccc1)C(=O)c1cc2nc(-c3ccccc3)cc(-c3ccccc3)n2n1,11.4
18,O=C(Nc1ccc(Cl)cc1)C1CC1(c1ccccc1)c1ccccc1 (centres undefined),-2.9
19,O=C(Nc1nnc(-c2cccs2)s1)c1cccc2ccccc12,9.2
20,COc1ccc(C(=O)Nc2ccc(OC)c(OC)c2)cc1,-11.6
21,CCOC(=O)c1c(NC(=O)c2ccccc2Cl)sc2c1CCCCC2,4.4
22,CCOc1ccc(C(NC=O)c2ccc(OC)c(OC)c2)cc1 (centres undefined),-4.3

row,SMILES,displacement [%]
1,O=C(NC(=S)N1CCOCC1)c1ccc(F)cc1,6.3
2,N#C/C(=C(/O)c1ccc([N+](=O)[O-])cc1)c1nc2ccccc2[nH]1,5
3,Cc1ccc(NC(=O)/C=C/c2cccc([N+](=O)[O-])c2)cc1,-2.4
4,CCOc1cccc(NC(=O)/C(C#N)=C/c2cn(CC(=O)Nc3ccccc3)c3ccccc23)c1,104
5,CC(=O)c1c(OC(=O)c2ccccc2)ccnc1C(F)(F)F,1.8
6,CCOC(=O)NC(NC(=S)Nc1c(C)n(C)n(-c2ccccc2)c1=O)C(Cl)(Cl)Cl (centres undefined),-3.8
7,CN(C)c1ccc(/C=C2\C(=O)NC(=S)N(c3ccc(Cl)c(Cl)c3)C2=O)cc1,-4.8
8,Cc1c(C=O)c(=O)oc2c3c4c(cc12)CCCN4CCC3,148
9,CC(Oc1ccccc1)C(=O)Nc1cccc(NC(=O)C(C)Oc2ccccc2)n1 (centres undefined),15.9
10,CC(C)(C)C(=O)Nc1ccc(C(=O)Oc2ccccc2)c(O)c1,-10.3
11,O=C1C2ON(c3ccccc3)C(c3cccc(Br)c3)C2C(=O)N1c1ccccc1 (centres undefined),11.2
12,C/C(Cn1nnc([N+](=O)[O-])n1)=N\NC(=O)c1ccc(Cl)c(Cl)c1,-0.9
13,O=C1CSC(=S)N1Cc1ccc(Cl)c(Cl)c1,11.7
14,CSc1ccc(/C=N/S(=O)(=O)CCc2ccccc2)cc1,-7.7
15,Cc1ccc(/C(CCN(C)C)=N/O)cc1,0.9
16,CCOc1ccc(S(=O)(=O)N(CC(=O)Nc2cc(C)cc(C)c2)c2ccc(C)cc2)cc1,10.2
17,O=C(CN1CCOCC1)Nc1ccc(-c2nc3ccccc3[nH]2)cc1,12.1
18,CC(=O)c1ccc(NC(=O)COc2ccc([N+](=O)[O-])cc2)cc1,3.9
19,O=C1C(=O)N(c2cccnc2)C(c2ccccc2Cl)/C1=C(\O)c1ccc(Cl)cc1 (centres undefined),-6.5
20,COc1cc(C2C3=C(CC(C)(C)CC3=O)OC3=C2C(=O)CC(C)(C)C3)cc(OC)c1O,-3.5
21,COc1ccc(C(=O)Nc2nnc(CCS(=O)(=O)c3ccc4ccccc4c3)s2)cc1OC,3.8
22,CCN(CC)S(=O)(=O)c1ccc(Cl)c(C(=O)Nc2ccc(OC)cc2)c1,-20.3

row,SMILES,displacement [%]
1,C=CCc1cc(/C=C2\C(=O)NC(=O)N(c3cc(C)cc(C)c3)C2=O)cc(OCC)c1OCC(=O)O,-11.7
2,O=C(COc1ccc2ccccc2c1)N/N=C\c1cc(O)c(O)c(Br)c1,6.6
3,FC(F)(F)c1cccc(-c2nnc3ccc4ccccc4n23)c1,-3.3
4,O=C(COc1ccc(Br)cc1)Nc1ccc(F)c([N+](=O)[O-])c1,2
5,O=C(/C=C/c1ccc(-c2ccc(Cl)cc2Cl)o1)c1ccc(F)cc1,8.2
6,Cc1cc(=O)oc2c(CN3CCN(CCO)CC3)c(O)ccc12,-9
7,CC1(C)Nc2ccccc2N(Cc2ccc(Cl)c(Cl)c2)C1=O,-7.9
8,CC(=O)c1c(C(=O)O)cccc1C(=O)O,4.4
9,O=C1NN(c2ccccc2)C(=O)/C1=C\c1ccc(Cl)cc1,11.1
10,Cc1ccccc1NCC(=O)N/N=C\c1cc(Br)cc(Br)c1O,-7.8
11,CCOC(=O)c1ccc(Nc2ncnc3c2cnn3-c2ccccc2)cc1,3
12,CN(C1=C(Cl)C(=O)N(c2ccccc2)C1=O)c1ccccc1,3.9
13,CCOc1nc(-c2ccccc2)c2cc(Br)ccc2n1,20.5
14,COc1ccc(C(C)(C#N)CC#N)cc1 (centres undefined),1.8
15,Cc1cc2c(cc1C)NC(CC(=O)Nc1ccccc1C(F)(F)F)C(=O)N2 (centres undefined),-13
16,COc1ccc(/C=C2\C=C(c3ccc(Cl)cc3)OC2=O)c(C)c1,0
17,CCOC(=O)C1=C(O)/C(=C/c2ccc(Cl)cc2Cl)SC1=Nc1cccc(Cl)c1,-3.9
18,CCC(CC)=NNC(=O)C(=O)NC(C)C,-10.7
19,CC1CCN(c2nc3ccccc3n3cnnc23)CC1,6.3
20,Cc1cc(C)c(C#N)c(SCC(=O)Nc2ccc(Cl)cc2)n1,-6
21,NC(=O)c1c(NC(=O)C2c3ccccc3Oc3ccccc32)sc2c1CCCCCC2,-4.7
22,COc1ccc(NC(=O)C(=O)N/N=C/c2ccc(OC)cc2OC)cc1,12.4

row,SMILES,displacement [%]
1,O=C(Nc1ccccc1C(=O)O)c1ccc2c(c1)C(=O)N(CC1CCCO1)C2=O (centres undefined),3.9
2,CCc1cc(C=C(Cl)Cl)oc(=O)c1C,0
3,O=C(Nc1cccc2nsnc12)c1cccc([N+](=O)[O-])c1,2.4
4,CCOC(=O)COc1ccc2c(oc(=O)c3ccccc32)c1C,8.2
5,O=C(Nc1ccc2c(c1)OCO2)C(=O)Nc1ccc2c(c1)OCO2,21.3
6,COc1cccc(CN2CCN(C(=O)c3ccc(-c4ccccc4)cc3)CC2)c1OC,-9
7,Brc1ccc(-c2noc(C(c3ccccc3)c3ccccc3)n2)cc1,10.5
8,CCOC(=O)c1c(C)[nH]c(/C=N/O)c1O,9
9,O=C(NCCNc1ccc([N+](=O)[O-])cc1)c1ccc(Cl)cc1,12.4
10,CSc1nsc(SC)c1NC(=O)OCCN1CCOC1=O,13.8
11,COc1ccc(N2C(=O)/C(=C/c3ccc(OCc4ccccc4F)c(OC)c3)C(=O)NC2=S)cc1,-10.9
12,COc1ccc(/C=C(\NC(=O)c2ccc(OC)cc2)C(=O)NCc2ccco2)cc1,-6
13,CCOC(=O)NC(NC(=S)Nc1ccc(NC(C)=O)cc1)C(Cl)(Cl)Cl (centres undefined),4
14,Cc1cc(=O)oc2cc(OCc3ccc(F)cc3)c(Cl)cc12,16.8
15,COc1ccc(/C=C2/SC(=S)N(/N=C/c3cc([N+](=O)[O-])ccc3O)C2=O)c(OC)c1,-3.6
16,O=C(Nc1ccc(Cl)c(-c2nc3ccccc3[nH]2)c1)c1cccs1,-63.3
17,O=C(NC(Nc1ccc([N+](=O)[O-])cc1)C(Cl)(Cl)Cl)c1cccc(I)c1 (centres undefined),6.8
18,COC(=O)C1=C(C)NC(=O)/C1=C\c1ccc(C(=O)O)cc1,4
19,Cc1ccc(S(=O)(=O)N2CCN(Cc3cccc4ccccc34)CC2)cc1,11.7
20,CC(O)CNC(=O)C(=O)Nc1ccc(F)cc1 (centres undefined),9.1
21,O=C(O)CN1C(=O)/C(=C\c2ccc(-c3ccccc3Cl)o2)SC1=S,-121
22,COc1ccc(Br)cc1C1C(C(=O)OCCOC(C)C)=C(C)NC2=C1C(=O)CCC2 (centres undefined),-2.6

row,SMILES,displacement [%]
1,O=C/C(=C\Nc1ccc(S(=O)(=O)CCO)cc1)c1nc2cc(Cl)ccc2o1,88.3
2,CCN(CC)c1ccc(C(=O)Nc2ccc(F)cc2F)cc1,5.1
3,O=C1NC(=O)/C(=C\c2ccc(O)cc2)S1,1.8
4,O=C(Nc1cccc(-c2nc3cc(Cl)ccc3o2)c1)c1cccc([N+](=O)[O-])c1,-3.3
5,COc1ccccc1CC(=O)N1CCc2ccccc21,13.6
6,CCN(CC)c1ccc(NC(=O)c2cccc(OCc3ccccc3)c2)cc1,32.4
7,CCN(CC)C(=O)c1cn(-c2ccccc2)nc1-c1ccc(Br)cc1,-0.6
8,CCN=C(Nc1cccc(Cl)c1)SC1CC(=O)N(c2ccc(OCC)cc2)C1=O (centres undefined),-8
9,Cc1cccc(NC(=O)c2ccccc2NC(=O)c2ccccc2F)c1,7.7
10,COc1ccc2c(c1OC)C(=O)N(c1ccc(Cl)c(Cl)c1)C2=O,-15
11,O=c1oc2ccc(Br)cc2cc1-c1nc(-c2ccc([N+](=O)[O-])cc2)cs1,-7.2
12,COc1ccccc1OCCNC(=O)c1ccc(Br)cc1,-19.3
13,Cc1ccc2nsnc2c1NC(=O)COc1ccc([N+](=O)[O-])cc1,-1.5
14,COc1ccc(C2(CC(=O)O)CCOC(C)(C)C2)cc1 (centres undefined),2.8
15,O=C(Oc1ccc2ccccc2c1)c1cc([N+](=O)[O-])ccc1Cl,-0.9
16,CCOc1ccc(NC2=CC(=O)CC(c3ccccc3)C2)cc1 (centres undefined),-3.3
17,O=C(O)c1ccc(/C=N/N2CCN(c3ccccc3)CC2)cc1,3.1
18,CC1CCc2c(sc(N)c2C(N)=O)C1 (centres undefined),34
19,C/C(=N\N=C1\NC(=O)C(CC(=O)Nc2ccccc2C)S1)c1ccco1 (centres undefined),10.3
20,CS(=O)(=O)N(Cc1ccc(C(=O)NCCSc2ccccn2)cc1)c1ccccc1,3
21,CC(C)Oc1ccc(C2Nc3ccccc3NC3=C2C(=O)CC(C)(C)C3)cc1 (centres undefined),-0.6
